# Hit rate of the full screen: of about 110,000 compounds, about 230 (0.21%) showed an effect of 50% or more. The list shows a part of the results.
# Biological target: DPAP1 (Plasmodium falciparum, UniProt Q8IIJ9)
# Assay: primary screen, percent inhibition; read by cleavage of a fluorogenic dipeptide substrate; higher = more effect of the substance
# Design: species or system P. falciparum D10 trophozoite lysates; single well
# 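Also: 30 min substrate incubation versus DMSO and 10 µM JCP410 controls.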
# DPAP1, sequence (Q8IIJ9 whole entry, looked up): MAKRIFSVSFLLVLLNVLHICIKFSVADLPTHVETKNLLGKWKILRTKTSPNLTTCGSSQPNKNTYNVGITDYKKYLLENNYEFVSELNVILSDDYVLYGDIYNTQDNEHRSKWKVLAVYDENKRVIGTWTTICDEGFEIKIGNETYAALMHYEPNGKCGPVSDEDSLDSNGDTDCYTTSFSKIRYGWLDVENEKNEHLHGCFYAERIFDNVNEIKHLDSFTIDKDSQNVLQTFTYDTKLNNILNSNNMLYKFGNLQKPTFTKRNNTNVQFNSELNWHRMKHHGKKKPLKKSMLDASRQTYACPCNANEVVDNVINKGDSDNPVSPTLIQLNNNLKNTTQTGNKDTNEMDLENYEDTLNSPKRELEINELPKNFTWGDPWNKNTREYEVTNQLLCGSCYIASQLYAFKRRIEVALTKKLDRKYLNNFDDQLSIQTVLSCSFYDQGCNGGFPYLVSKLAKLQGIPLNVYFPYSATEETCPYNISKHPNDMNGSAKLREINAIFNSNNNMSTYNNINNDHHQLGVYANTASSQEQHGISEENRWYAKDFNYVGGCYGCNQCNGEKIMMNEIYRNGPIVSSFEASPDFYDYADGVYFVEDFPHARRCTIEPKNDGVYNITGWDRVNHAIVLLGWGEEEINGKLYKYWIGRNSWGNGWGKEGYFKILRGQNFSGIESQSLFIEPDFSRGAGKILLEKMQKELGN
row,SMILES,% Inhibition @ 10 uM [%]
1,CC1Cc2nc(SCC(N)=O)n(CCc3ccccc3)c(=O)c2S1 (centres unmarked),-3.51
2,C/C=C(\C)CN1CCN(CCO)CC1,2.99
3,C=CCN1C(=O)S/C(=C/c2ccc(OCc3ccc(C(=O)O)cc3)cc2)C1=O,-1.95
4,O=C(c1ccco1)N1N=C(c2cccs2)CC1c1ccco1 (centres unmarked),1.05
5,COC(=O)C1=C(C)N=C(C)/C(=C(/O)OC)C1c1ccc(-c2cccc(Cl)c2Cl)o1 (centres unmarked),-5.63
6,COc1ccc(CN2CCN(C/C=C/c3ccccc3)CC2)c(OC)c1OC,-2.91
7,COc1ccc2ccccc2c1CN(CCCN(C)C)CCCN(C)C,0.871
8,N=C(N)n1nc2ccc3nn(C(=N)N)nc3c2n1,1.42
9,COc1ccc(Cc2nc3c4cnn(Cc5ccccc5)c4ncn3n2)cc1OC,-4.64
10,O=C(c1cccs1)N1CCN(c2ccc(F)cc2)CC1,0.135
11,CCOCCn1c(CN2CCN(C(=O)c3ccco3)CC2)nc2c1c(=O)n(C)c(=O)n2C,0.317
12,N#Cc1c(O)nc(SCC(=O)N2CCN(C34CC5CC(CC(C5)C3)C4)CC2)nc1-c1ccccc1,4.57
13,CC(C)N1CCN(c2ccc(S(=O)(=O)N3CCOCC3)cn2)CC1,-8.92
14,CCN(CC)S(=O)(=O)c1ccc(C(=O)NCCSc2c(C)[nH]c3ccccc23)cc1,-1.73
15,N#CCNC(=O)C(CCc1ccc(F)cc1Cl)NC(=O)OCc1ccccc1 (centres unmarked),2.87
16,COc1ccc(C2(CN)CCOCC2)cc1OC,3.44
17,O=C(Nc1cccc2c1CCCC2)c1ccc(Cl)cc1Cl,-4.15
18,CCC(C)NC(=O)CCn1c(-c2ccc(F)cc2)cc(C(C)=O)c1C (centres unmarked),4.61
19,O=C(CCC(=O)Nc1sc2c(c1C(=O)O)CCCC2)Nc1sc2c(c1C(=O)O)CCCC2,5.92
20,COc1ccc(CN2CCN(Cc3ccccc3OC)CC2)c(OC)c1,-2.17
21,O=C(Nc1cnn(Cc2ccc(Cl)cc2Cl)c1)c1cc(-c2ccc(O)cc2)on1,-2.65
22,CC(=O)N1N=C(c2ccc(C)cc2)CC1c1ccccc1F (centres unmarked),-1.1
23,CC(C)Cn1c(=O)c2sccc2n2c(CCCC(=O)NC3CCC(C)CC3)nnc12 (centres unmarked),-3.01
24,COc1cc(/C=C/c2nc(C#N)c(NCCN(C)C)o2)cc(OC)c1OC,2.54
25,Cc1cccc(OCC(=O)Nc2nonc2NC(=O)COc2cccc(C)c2)c1,0.231

row,SMILES,% Inhibition @ 10 uM [%]
1,COc1cccc(-c2nn3c(C4COc5ccccc5O4)nnc3s2)c1 (centres unmarked),1.25
2,CC(Oc1ccc(Cl)cc1Cl)C(=O)Nc1cccc(F)c1 (centres unmarked),-2.03
3,c1coc(CN2CCc3c([nH]c4ccccc34)C2)c1,2.23
4,C#CCOc1ccc(/C=C2\NC(=O)N(Cc3ccc(Cl)cc3)C2=O)cc1OC,-1.25
5,COc1ccc(-c2noc(N(C)CC(=O)NCCC3=CCCCC3)n2)cc1,-0.522
6,Cn1nc(-c2ccc(Cl)cc2)c2cc(C(=O)N3CCN(c4ccccn4)CC3)sc21,-3.09
7,Cc1ccc(CNC(=O)CCCn2c(=O)c3sccc3n(Cc3ccccc3C#N)c2=O)cc1,-5.09
8,CS(=O)(=O)N(CC(=O)N1CCN(c2ccccc2)CC1)c1ccc(Cl)c(Cl)c1,-1.82
9,Cc1nc2nc(SCC(=O)NCC3CCCO3)nn2c(C)c1Cc1c(F)cccc1Cl (centres unmarked),17.4
10,CCc1ccc(S(=O)(=O)Nc2ccc(-c3csc(C)n3)cc2)cc1,-3.09
11,Cc1c(Cl)c(C(=O)Nc2cccc(S(=O)(=O)N3CCOCC3)c2)nn1C,-6.69
12,CCN(CC)CCN(C)Cc1cccc(Cl)c1Cl,5.03
13,CCCN1CC2=C(OC(N)=C(C#N)C2c2ccccc2)/C(=C\c2ccccc2)C1 (centres unmarked),-4.03
14,C/C(O)=C\C(C)=N\C(C)C(=O)O (centres unmarked),0.736
15,COc1ccc(OC)c(C2C(C(=O)c3ccc(C)cc3)=C(O)C(=O)N2CCCC(=O)O)c1 (centres unmarked),-13.9
16,CCCC12CN3CC(C)(CN(C1)C3c1c(C)n(C)c3ccccc13)C2=O (centres unmarked),1.67
17,COc1ccc(S(=O)(=O)N2CCC(C#N)(c3ccccc3)CC2)cc1N,7.02
18,N#CCNC(=O)[C@H](CC1CCCCC1)NC(=O)c1cccc(N)c1,-1.83
19,COc1ccc(-c2cc(C(=O)N3CCCCC3)c3ccccc3n2)c(OC)c1,5.31
20,COc1ccccc1C(=O)NCc1nc2ccccc2n1Cc1ccccc1F,-8.18
21,Cc1[nH]c2ccc(Br)cc2c1CCNC(=O)c1cccs1,-8.94
22,CC(NC(=O)c1ccccc1OCC(=O)NC12CC3CC(CC(C3)C1)C2)c1ccccc1 (centres unmarked),-1.24
23,COc1ccccc1C(NC(C)=O)c1c(O)ccc2ccccc12 (centres unmarked),-5.05
24,CCn1cc(/C=C(\NC(=O)c2ccc(OC)cc2)C(=O)N2CCCC2)c2ccccc21,-1.74
25,CCCOc1ccccc1NC(=O)CC1Sc2ccccc2NC1=O (centres unmarked),1.24

row,SMILES,% Inhibition @ 10 uM [%]
1,COc1cc2oc(=O)c(CC(=O)NCc3ccc4c(c3)OCO4)c(C)c2cc1Cl,2.54
2,CN(C)CCCn1cnc2ccccc21,-0.582
3,Cn1nc(C(=O)NC2CCCc3ccccc32)c2c1-c1ccccc1SC2 (centres unmarked),9.28
4,CCCCNC(=O)CCc1nnc2ccc(N3CCCC3)nn12,-3.73
5,CCCCSCCCNC(=O)c1cc(O)nc2ccc(Br)cc12,-3.58
6,COC(=O)c1cc(S(=O)(=O)N2CCN(c3ccc(N4CCOCC4)nn3)CC2)cn1C,-5.47
7,CCOc1ccc(-c2nc(SCC(=O)Nc3nccs3)c(-c3ccccc3)[nH]2)cc1OC,1.85
8,C#CCOc1c(CC=C)cc(/C=C2/NC(=O)NC2=O)cc1OCC,-5.63
9,Cc1ccc(S(=O)(=O)N2CCC(C(=O)N3CCN(Cc4ccc5c(c4)OCO5)CC3)CC2)cc1,-1.26
10,CC1CC(C)(C)NC(=S)N1CCCC(=O)N1CCN(c2ccccn2)CC1 (centres unmarked),-3.31
11,C=CCN1C(=O)S/C(=C/c2cc(Cl)cc(Br)c2O)C1=O,3
12,CC(NCc1ccccc1)C1COc2ccccc2O1 (centres unmarked),-5.15
13,COC(=O)c1[nH]c2ccc(F)cc2c1N,1.32
14,Cc1cccc(Cn2c(C)c(C)c3cc(C(=O)NCC4CCCO4)ccc32)c1 (centres unmarked),-5.09
15,O=C(O)c1ccc(CSc2nc3n(n2)C(c2cccs2)C2=C(O)CCCC2=N3)cc1 (centres unmarked),-3.45
16,Clc1ccc(-c2[nH]c(-c3cccnc3)nc2-c2ccccc2)cc1,-0.0108
17,CCOCCCNC(=O)c1nnc(Cc2ccc3c(c2)OCO3)o1,-2.78
18,CCCCN(CC)CCNC(=O)c1ccc2c(Cl)c3c(nc2c1)CCC3,-0.495
19,CC(C)C[C@H](NC(=O)NC(C)(C)C)C(=O)NCC#N,3.19
20,Cc1cc(Oc2nc3c(C)cccn3c(=O)c2/C=C(\C#N)S(=O)(=O)c2ccccc2)ccc1Cl,2
21,O=C(O)c1cccc(NC(=O)c2ccc(N3C(=O)C4CCCCC4C3=O)cc2)c1 (centres unmarked),-0.884
22,CCC1(C)Cc2c(sc3nc(SC)n4c(S)nnc4c23)CO1 (centres unmarked),-4.93
23,CC(Nc1oc(/C=C/c2ccc(F)cc2)nc1C#N)c1ccccc1 (centres unmarked),-4.39
24,Cc1ccc(COc2ccc3oc(C)c(C(=O)O)c3c2)cc1,-2.15
25,CC1CCC(C(C)C)C(OCC(O)CN2CCN(c3ccc(F)cc3)CC2)C1 (centres unmarked),4.22

row,SMILES,% Inhibition @ 10 uM [%]
1,O=C(O)C1CCCCC1C(=O)Nc1ccc(F)cc1F (centres unmarked),2.03
2,CC(C)c1ccc(CN(CCO)CCO)cc1,-2.34
3,Cc1cc(C)c2c(n1)nn1c(C)c(CCC(=O)NCC3CCCO3)c(C)nc21 (centres unmarked),-2.45
4,CC1CCN(C(=O)CSc2nc(-c3ccc(C(C)(C)C)cc3)nc3cc(=O)[nH]n23)CC1,1.8
5,COc1ccc2[nH]c3c(c2c1)CC(C)NC3=O (centres unmarked),-0.436
6,Cc1ccc(NC(=O)CN2C(=O)N/C(=C/c3ccc(C(C)C)cc3)C2=O)cc1,2.24
7,N#C/C(=C\c1c(Oc2ccccc2)nc2ccccn2c1=O)C(=O)N1CCCCC1,1.19
8,COc1ccc(/C=C/C(=O)c2ccc(OC)cc2OC)c(OC)c1,-4.08
9,O=C(Nc1ccc(F)cc1F)c1ccc(F)cc1,-3.03
10,CCCN1CCN(C(=O)Cn2nc(C)n3c(cc4sccc43)c2=O)CC1,4.95
11,Cc1ccc2cc(CCNC(=O)c3cc4ccccc4o3)c(O)nc2c1,1.39
12,CCc1c(C)sc(NC(=O)c2cc(-c3ccccc3OC)on2)c1C#N,-1.28
13,CC1(C(=O)NCc2ccco2)CC2c3ccccc3C1c1ccccc12 (centres unmarked),-2.16
14,Cc1c2cnn(CC(=O)NCCc3c[nH]c4ccccc34)c(=O)c2c(C)n1Cc1ccccc1,1.22
15,CC1CCc2nn(CC(=O)NC(C)c3ccccc3)cc2C1 (centres unmarked),0.137
16,O=C1CCCN1CCNC(=S)Nc1ccccc1,-5.33
17,CCOC(=O)c1cnc2cc(F)c(F)cc2c1N1CCCC1,2.77
18,Cc1c(Cl)c(C(=O)Nc2ccc(N(C)C)cc2)nn1C,-0.661
19,O=C1c2ccccc2C(=O)N1CC(=O)N1CCCc2ccccc21,-3.26
20,Cc1ccc(-c2cn3nc(N4CCCC(C(=O)NCc5ccccc5C)C4)sc3n2)cc1 (centres unmarked),0.95
21,Nc1cc(O)nc(SCC(=O)N2CCCc3ccccc32)n1,-4.01
22,Cc1cc2c(c(O)n1)C(=O)O/C2=C\c1cccs1,-0.415
23,COc1ccccc1CNCc1c(C(=O)O)n(Cc2ccc(F)cc2Cl)c2cc(C)ccc12,-8.04

# Reference: publication PMC6919601, “Identification of Plasmodium dipeptidyl aminopeptidase allosteric inhibitors by high throughput screening” (PLoS ONE, 2019)
